The campaign covered roughly 94,000 compounds. About 4,000 (4.3%) were called active. This list was built around the results that the source calls inconclusive (neither active nor inactive); the mix of calls is not that of the screen. The call rests on the fitted dose curve; in most records, active means well fitted inhibition curve with a large enough effect; inconclusive means small, poorly fitted or top-dose-only effect; inactive means no such curve, though single readings can be large or run the other way. Potencies beside an inconclusive call are fits to weak or partial responses and may not hold up.
test: Cytotoxic Profiling in NIH 3T3 Cell Line of Diverse Libraries Using Quantitative High-Throughput Screening; details: NIH 3T3 viability, CellTiter-Glo ATP luminescence, 48-72 h; activity change, negative = cytotoxicity: at 96.7 µM (top of the series) unless noted; series mostly up to 96.7 µM; further: nearly all actives have a fitted effect of over 55% in size
In short: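 Cytotoxicity was measured by CellTiter-Glo ATP luminescence after 48 or 72 h compound exposure at 37 °C. Mouse NIH 3T3 fibroblasts were seeded at 400 cells/well and dosed by 23 nL pin transfer.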
On the % scale 0 is the no-effect control and ±100 the full control effect; potency means the concentration at half of the fitted maximal effect; tags describe the fitted curve by direction and shape.

Compound | activity change, negative = cytotoxicity | Potency | outcome
O=C(Cn1ccn2nc(-c3ccc(F)cc3)c(CO)c2c1=O)Nc1ccccc1F | inactive: -20% | – | –
COc1cc(NC(=O)c2cc3c(N4CCSCC4)nc(C)cn3n2)cc(OC)c1 | inactive: -19.2% | – | –
CCN(Cc1ccccc1)C(=O)c1cc(COc2ccccc2)[nH]n1 | – | inconclusive: 50.1 µM [inhibitor, partial curve, poor fit] | –
O=C(c1cc(F)ccc1Br)N1CCN(c2ccnc3ccnn23)CC1 | inactive: -24.8% | – | –
COc1cccc(Nc2ncc(-c3ccc(OC)nc3)c3c2OCC3)c1 | – | inconclusive: 56.2 µM [inhibitor, partial curve, poor fit] | –
COc1ccc(Cn2c(=O)c(C(=O)NCc3cccs3)nc3cccnc32)cc1 | – | inconclusive: 50.1 µM [inhibitor, partial curve, poor fit] | –
Cc1cc2nc3n(c(=O)c2n1CC(=O)Nc1cccc(Br)c1)CCCC3 | inactive: -28.2% | – | –
CCC(CC)C(=O)N1CC(c2nnc(-c3ccc(C)cc3)o2)C2(CCOCC2)C1 (centres undefined) | inactive: -14.6% | – | –
COc1ccccc1S(=O)(=O)NC1CCCN(C2CCCCCC2)C1 (centres undefined) | inactive: -3.65% | – | –
C[C@]12CCC(=O)C=C1CCC[C@@H]2OC(=O)c1ccccc1 | – | inconclusive: 50.1 µM [inhibitor, partial curve, poor fit] | –
O=C(NC1CCN(Cc2cccc(-c3cccs3)c2)CC1)c1ccc(F)cc1 | – | inconclusive: 70.8 µM [inhibitor, single point] | –
O=C(NCc1cccc(Cl)c1)C1CCCN(c2ccnc3ccnn23)C1 (centres undefined) | – | inconclusive: 44.7 µM [inhibitor, partial curve] | –
O=C(NCc1nnc2ccc(-c3ccccc3)nn12)c1ccoc1 | inactive: -8.05% | – | –
CCn1cc(CN(C)C(=O)c2ccc3c(c2)C(O)CCCCCN3C)c(C)n1 (centres undefined) | – | inconclusive: 50.1 µM [inhibitor, partial curve, poor fit] | –
CCC(C)NC(=O)C1COC2(CCN(C(=O)c3ccc(OC)cc3)CC2)N1C(=O)c1ccc(C)cc1 (centres undefined) | inactive: 3.56% | – | –
COc1ccc(CNC(=O)[C@@H]2Cc3nc[nH]c3CN2Cc2ccc(OC)c3ccccc23)cc1 | – | inconclusive: 79.4 µM [inhibitor, partial curve, poor fit] | –
CCCN(C)c1nccnc1OC1CCN(C(=O)C(C)C)C1 (centres undefined) | – | inconclusive: 70.8 µM [inhibitor, single point] | –
COc1cccc(-c2cn3cc(C(=O)NC4CCCCC4)nc3s2)c1 | – | inconclusive: 44.7 µM [inhibitor, partial curve, poor fit] | –
CC(C)CNC(=O)N1CCC(N2CC3CC(C2)[C@H]2CCCC(=O)N2C3)CC1 (some centres undefined) | – | – | inactive
O=C(Nc1ccc(Oc2ccccc2)cc1)O[C@@H]1CO[C@H]2[C@@H]1OC[C@@H]2NC(=O)c1ccc(C(F)(F)F)cc1 | – | inconclusive: 10 µM [inhibitor, partial curve, poor fit] | –
CCn1ccc(C(=O)N2CCC(c3cc(Cc4ccccc4)[nH]n3)CC2)n1 | – | inconclusive: 89.1 µM [inhibitor, single point] | –
COc1ccc(-c2nccn3cc(C(=O)NCc4cccnc4)nc23)cc1 | – | inconclusive: 56.2 µM [inhibitor, partial curve, poor fit] | –

Compound | activity change, negative = cytotoxicity | Potency | outcome
COCCNc1c(-c2noc(C)c2C(=O)Nc2ccc(OC)cc2)cnn1C | – | inconclusive: 56.2 µM [inhibitor, partial curve, poor fit] | –
O=C(NCC1CC1)c1nc2cccnc2n(CCc2ccccc2)c1=O | – | inconclusive: 50.1 µM [inhibitor, partial curve, poor fit] | –
CCc1ccc(N2CC(c3noc(-c4sccc4C)n3)CC2=O)cc1 (centres undefined) | – | inconclusive: 50.1 µM [inhibitor, partial curve, poor fit] | –
O=C(OCc1ccccc1)N1CCOCC12CCN(Cc1c[nH]c3ccccc13)CC2 | – | active: 35.5 µM | –
COCCn1ccc2c(C3=CCOCC3)nc(-c3cccc4[nH]ncc34)cc21 | – | inconclusive: 25.1 µM [inhibitor, full curve, poor fit] | –
COc1ccc(NC(=O)c2cc3c(s2)CN(C2CCCC2)C3)c(C)c1 | – | inconclusive: 35.5 µM [inhibitor, partial curve] | –
Cc1c(-c2ccccc2)[nH]c2c(CNC(=O)CCc3nncn3C)cc(Cl)cc12 | – | inconclusive: 79.4 µM [inhibitor, partial curve, poor fit] | –
COc1ccccc1Nc1ccnc(N2CCCC(C(=O)N3CCC(C#N)CC3)C2)n1 (centres undefined) | – | inconclusive: 50.1 µM [inhibitor, partial curve, poor fit] | –
COc1ccc(Cn2c(=O)c(C(=O)N3CCN(C(=O)Nc4ccc(Cl)cc4)CC3)nc3cccnc32)cc1 | – | inconclusive: 35.5 µM [inhibitor, partial curve, poor fit] | –
Cc1nc(-c2c3n(c(=O)n(Cc4ccc(F)c(F)c4)c2=O)CCCC3)no1 | – | inconclusive: 70.8 µM [inhibitor, single point] | –
CNC(=O)c1cc(C2CC2)nc2c1c(C1CCCN1[S+](=O)([O-])c1ccccc1)nn2C (centres undefined) | – | inconclusive: 50.1 µM [inhibitor, partial curve, poor fit] | –
CCc1nnc([C@@H]2CC(F)(F)CN2C(=O)c2cc(C)oc2C)o1 | inactive: -7.09% | – | –
COc1cccc(F)c1C(=O)N1C[C@H](N)C[C@H]1C(=O)NC(C)C | inactive: -22.2% | – | –
COc1ccc(CCc2nc3nccc(-c4ccncc4)n3n2)cc1 | – | inconclusive: 79.4 µM [inhibitor, single point] | –
CC1(CCCCc2ccccc2)COc2ccc(C(=O)NCc3ccncc3)cc2N1 (centres undefined) | – | inconclusive: 89.1 µM [inhibitor, partial curve, poor fit] | –
COc1ccc(S(=O)(=O)NC[C@H]2Cn3c(-c4ccc(Cl)cc4)cnc3CO2)cc1 | – | active: 79.4 µM | –
CC(C)C[C@@H]1N[C@H](C(=O)N2CCOCC2)Cc2cn(Cc3ccncc3)c3cccc1c23 | – | inconclusive: 89.1 µM [inhibitor, partial curve, poor fit] | –
COc1ccc(C(=O)NC2CCN(c3cc(-c4ccccc4)[nH]n3)CC2)c(C)c1 | – | inconclusive: 44.7 µM [inhibitor, partial curve, poor fit] | –
COc1ccc(C(=O)N2CCCC(n3c(C)cnc3C3CCC3)C2)cc1 (centres undefined) | inactive: -26.6% | – | –
COCCNCc1nc2c(n1Cc1ccccc1)C(=O)N(Cc1ccccc1C#N)CCN2 | – | inconclusive: 44.7 µM [inhibitor, partial curve] | –
O=C(C[C@@H]1O[C@H](CNC(=O)c2ccco2)[C@@H](O)[C@H]1O)NCc1ccc(F)cc1 | inactive: -14.6% [at 174 µM] | – | –
Cc1ccc(-c2ccc3nnc(CNC(=O)c4ccco4)n3n2)cc1C | – | inconclusive: 12.6 µM [inhibitor, partial curve, poor fit] | –

Compound | activity change, negative = cytotoxicity | Potency | outcome
CN(c1ccccc1)c1ccc2nnc(-c3cc(C(=O)Nc4ccn(C)n4)ccn3)n2n1 | – | inconclusive: 4.47 µM [inhibitor, full curve, poor fit] | –
Cc1ccc(C(=O)N2CCC(CCC(=O)NC3CCCCC3)CC2)cc1 | – | inconclusive: 50.1 µM [inhibitor, partial curve, poor fit] | –
O=C1CC(c2ccccc2)N(C(=O)Nc2ccccc2F)CCCCCN1 (centres undefined) | inactive: -8.68% | – | –
O=C(CCn1cncn1)N1CCC2(CCC(=O)N(CCc3ccncc3)C2)CC1 | inactive: -12.1% | – | –
Cc1nc2cccnc2n1CC1CCCN(S(=O)(=O)c2ccccc2F)C1 (centres undefined) | – | inconclusive: 50.1 µM [inhibitor, partial curve, poor fit] | –
COc1cccc(OC)c1-c1c(-c2ccccc2)ncn1CCCSC | – | inconclusive: 39.8 µM [inhibitor, partial curve] | –
COc1ccc(CNc2cc(Cl)nc3ccnn23)cc1OC | – | inconclusive: 44.7 µM [inhibitor, full curve] | –
COCCNC(=O)[C@@H]1CCC[C@@H](NC(=O)C2CC2)CN(C)C(=O)C1 | inactive: -22.3% [at 138 µM] | – | –
CSc1ccc(-c2ccc(C=O)cc2)cc1 | – | inconclusive: 126 µM [inhibitor, single point] | –
O=C(Nc1cccc(-c2nnc3n2CCCC3)c1)c1cc(F)cc(F)c1 | – | inconclusive: 50.1 µM [inhibitor, partial curve, poor fit] | –
Cc1cc(=O)n(CC(=O)Nc2ccc(Br)cc2F)c(N(C)Cc2ccccc2)n1 | – | inconclusive: 5.01 µM [inhibitor, full curve, poor fit] | –
O=C(NC1CCN(C(=O)c2ccc(-c3cccs3)cc2)CC1)c1ccccn1 | – | inconclusive: 50.1 µM [inhibitor, partial curve, poor fit] | –
Cc1ccccc1C(=O)NC1CCCN(c2cc(-c3ccc(F)cc3)[nH]n2)C1 (centres undefined) | – | inconclusive: 70.8 µM [inhibitor, single point] | –
CCNC(=O)NC[C@@H]1C=C(C)[C@H](Cc2nnc(-c3ccccc3F)o2)C[C@H]1C(C)C | – | inconclusive: 63.1 µM [inhibitor, partial curve, poor fit] | –
COc1ccc(CN2CC(C)(NC(C)=O)C2)c2ccccc12 | inactive: -16.7% [at 138 µM] | – | –
Cc1ccc(C(=O)N2CCC3(C2)NC(=O)c2ccccc2O3)cc1 (centres undefined) | – | inconclusive: 70.8 µM [inhibitor, partial curve, poor fit] | –
CCC(=O)N1CCc2c(C(=O)NCc3cc(C)ccc3C)cccc21 | inactive: -10.6% | – | –
CN1C[C@@H](N)C[C@H]1c1nc(-c2ccc3c(c2)OCO3)no1 | inactive: -3.32% [at 230 µM] | – | –
COc1ccc(CNc2cc3c(cn2)CN(C)CCN3)cc1OC | – | inconclusive: 79.4 µM [inhibitor, partial curve] | –
CN(Cc1ccccc1)C(=O)C[C@@H]1CCNC[C@@H]1Cc1cc(-c2ccccc2)on1 | – | active: 10 µM | –

From PubChem BioAssay AID1345082 (National Center for Advancing Translational Sciences (NCATS), 2018)
